Results taken from PubChem BioAssay AID651567 (National Center for Advancing Translational Sciences (NCATS), 2012).
Among all 1,200 compounds or so, about 10 (0.8%) were called active. Not shown: some 4% with an inconclusive outcome. Calls come from the whole dose curve; as a rule, active = well fitted inhibition curve with a large enough effect; inconclusive = small, poorly fitted or top-dose-only effect; inactive = no such curve, though single readings can be large or run the other way. Some of the results follow.

Assay: qHTS Assay to Find Inhibitors of Chronic Active B-Cell Receptor Signaling: Hit Validation in OCI-Ly3 Assay
Conditions: OCI-Ly3 IkB-luciferase reporter, Chroma-Glo luminescence, 4 h; series mostly up to 46.1 µM; activity change, negative = inhibition: at the top concentration
Outline: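 Readout is dual-colour luminescence: IkB-alpha-luciferase fusion (green) against unfused luciferase (red), plus their ratio, scaled between basal cells and 10 uM MG-132. OCI-Ly3 cells, 0.5% FBS IMDM, compound with doxycycline (80ng/ml solution), 4 hrs at 37C; curves fitted and classed.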
% is set by controls: 0 for no effect and ±100 for the full control effect; potency is the fitted concentration of half-maximal effect.

Row | SMILES | activity change, negative = inhibition | Potency
1 | CN(C)/C=N/c1sc2c(c1C#N)CCCC2 | inactive: -0.499% | 
2 | COc1ccc(NC(=O)Cn2nnc(-c3ccccc3NS(=O)(=O)c3ccc(OC)cc3)n2)cc1 | inactive: -0.428% | 
3 | CCOC(=O)c1cnc(Nc2nc3ccccc3o2)nc1CSC(=S)N(CC)CC | inactive: -1.67% | 
4 | CCOc1ccc(Cl)cc1C1=CC(=O)C[C@H](c2ccc(OC)cc2)C1 | inactive: -4.37% | 
5 | C[C@@H]1C[C@H]2[C@@H]3C[C@H](F)C4=CC(=O)C=C[C@]4(C)[C@@]3(F)[C@@H](O)C[C@]2(C)[C@@]1(O)C(=O)CO | inactive: -2.4% | 
6 | O=C1OCC2=C1C(c1ccc(F)cc1)c1cc3c(cc1N2)OCO3 (stereo not drawn) | inactive: -4.57% | 
7 | CC(C)(C)c1ccc(C(=O)CCC(=O)NCc2ccccc2)cc1 | inactive: -0.465% | 
8 | CCCNc1nc(-c2ccccc2)c(C(=O)OCC)cc1C#N | inactive: -1.65% | 
9 | CC(=O)Nc1ccc(S(=O)(=O)N2c3ccccc3C(C)=CC2(C)C)cc1 | inactive: -3.12% | 
10 | COc1ccccc1N1CCN(C(=O)C2c3ccccc3Oc3ccccc32)CC1 | inactive: -3.98% | 
11 | O=C(Oc1ccc2ccc(OC(=O)N3CCOCC3)cc2c1)N1CCOCC1 | inactive: -0.304% | 
12 | O=[N+]([O-])c1cc(/C=N/O)ccc1Sc1ccccc1 | inactive: -1.92% | 
13 | CC(C)NC(=S)N=Nc1c(O)[nH]c2ccc([N+](=O)[O-])cc12 | inactive: -11.9% | 
14 | CCOC(=O)N1CCC(NC(=O)CS(=O)(=O)Cc2nc(-c3ccccc3C)oc2C)CC1 | inactive: -0.962% | 
15 | COc1ccc(/C=N/NC(=O)CCn2cnc(-c3ccccc3)c2-c2ccccc2)cc1OC | inactive: -6.46% | 
16 | COc1ccc2c(c1)OC(=O)CC2c1cc(OC)c(OC)c(OC)c1 (stereo not drawn) | inactive: -0.97% | 
17 | CCN1C(=O)c2cccc3c(S(=O)(=O)Nc4ccccc4O)ccc1c23 | inactive: -2.36% | 
18 | CCN(CC(=O)Nc1ccccc1SC)Cc1nc2ccccc2c(=O)[nH]1 | inactive: -0.266% | 
19 | CCOC(=O)C1=C(C)c2ccccc2N(C(=O)OC)C1(C)C(=O)OCC (stereo not drawn) | inactive: -1.69% | 
20 | COc1cc(C(=O)c2cocc2C(=O)c2ccc3c(c2)OCO3)cc(OC)c1OC | inactive: -1.26% | 
21 | Clc1cncc(Cl)c1N/N=C/c1ccncc1 | inactive: -4.45% | 
22 | O=C(N/N=C/c1cccs1)c1cc(-c2ccncc2)nc2ccccc12 | inactive: -3.1% | 
23 | O=C(c1ccc(CS(=O)c2ccccc2Cl)o1)N1CCN(c2ccccc2)CC1 (stereo not drawn) | inactive: -1.62% | 
24 | Oc1ccccc1/C=N/Nc1ccnc(SCc2ccccc2)n1 | inactive: 0.375% | 
25 | CN(C)c1ccc(C(=O)c2ccc(N(C)C)c3ccccc23)cc1 | inactive: -5.9% | 
26 | N#C/C(=C\c1cn(Cc2ccc(F)cc2)c2ccccc12)C(=O)NCc1ccco1 | inactive: 0.627% | 

Row | SMILES | activity change, negative = inhibition | Potency
27 | COc1ccc(-c2cc(C(=O)N/N=C(\C)c3cccnc3)c3ccccc3n2)cc1 | inactive: 0.473% | 
28 | Nc1ccc(C(=O)Nc2ccccc2N)cc1 | inactive: -5.26% | 
29 | CCCCn1c(=O)c(F)cn(Cc2ccc(OC)c([N+](=O)[O-])c2)c1=O | inactive: -0.178% | 
30 | COc1ccc(COC(=O)C2=C(C)NC(=O)NC2c2cc(Br)c(O)c(OC)c2)cc1 (stereo not drawn) | inactive: 0.378% | 
31 | COc1cc(/C=C2\N=C(c3ccccc3)NNC2=O)cc(OC)c1OC | inactive: -4.52% | 
32 | CC[C@]12c3[nH]c4cc(CCC(=O)N(C)C)ccc4c3CCN1C(=O)[C@@H](CC(=O)NC(C)(C)C)C[C@@H]2C(=O)N1CCN(C(=O)c2ccco2)CC1 | inactive: -2.11% | 
33 | O=c1[nH]c(-c2ccccn2)nc2sc(-c3ccccc3)cc12 | inactive: 15.4% | 
34 | CC1=CC(C)(C)N(S(=O)(=O)c2ccc(C)cc2)c2ccc(C)cc21 | inactive: -2.05% | 
35 | O=C(CCl)Nc1cccc(S(=O)(=O)NC2=NCCCCC2)c1 | inactive: -25.6% | 
36 | O=C(CSc1cccc[n+]1[O-])c1ccc(Cl)cc1 | inactive: -0.776% | 
37 | Cc1ccc(S(=O)(=O)Nc2cccc3cccnc23)cc1 | inactive: 32.7% | 
38 | Cc1ccc(S(=O)(=O)Nc2cccc3ncccc23)s1 | inactive: 32.4% | 
39 | CCn1c(O)c(N=NC(=S)NCC2CCCO2)c2ccccc21 (stereo not drawn) |  | active: 20.6 µM
40 | COc1ccc(-c2c(-c3cc(OC)c(OC)c(OC)c3)noc2C)cn1 | inactive: -3.49% | 
41 | C(=N\Nc1nc2ccccc2[nH]1)/C1CCCCC1 | inactive: -0.557% | 
42 | CCC(=O)[C@@]1(C)[C@H](C)C[C@H]2[C@@H]3CCC4=CC(=O)C=C[C@]4(C)[C@H]3[C@@H](O)C[C@@]21C | inactive: -1.74% | 
43 | CC1(C)N=c2ccc([N+](=O)[O-])c(N)c2=[N+]1[O-] | inactive: -0.356% | 
44 | CCCCNC(=S)N=Nc1c(O)[nH]c2ccccc12 | inactive: -0.579% | 
45 | CCOC(=O)C1C(C(=O)OC)=C(c2ccc(OC)cc2)c2ccccc2N1S(=O)(=O)C(F)(F)F (stereo not drawn) | inactive: -0.0891% | 
46 | CC[C@]1(O)CC2CN(CCc3c([nH]c4ccccc34)[C@@](C(=O)OC)(c3cc4c(cc3OC)N(C=O)[C@H]3[C@@](O)(C(=O)OC)[C@H](OC(C)=O)[C@]5(CC)C=CCN6CC[C@]43[C@@H]65)C2)C1 (stereo partly drawn) | inactive: -5.16% | 
47 | O=C(NC(=S)N1CCN(c2ccc(Cl)cc2[N+](=O)[O-])CC1)c1cccs1 | inactive: 123% | 
48 | CCCSc1nnc(Sc2nnnn2-c2ccccc2)s1 | inactive: -9.45% | 
49 | CC1=Nc2ccccc2/C1=C\c1sc(Nc2ccc(C)cc2)nc1O | inactive: -20.5% | 
50 | Cc1cccc(NC(=O)c2ccc(C(=O)Nc3cccc(C)c3)nc2)c1 | inactive: -0.935% | 
51 | Cc1ccc(NS(=O)(=O)c2cc(-c3n[nH]c(=O)c4ccccc34)ccc2C)cc1 | inactive: -3.87% | 
52 | Cc1cccc(C(=O)Oc2ccc(/C=N/O)cc2)c1 | inactive: -0.552% | 

Row | SMILES | activity change, negative = inhibition | Potency
53 | CN1c2ccccc2Sc2cc(N)ccc21 | inactive: -0.863% | 
54 | COc1ccc(-c2c(C)nn3c(N)c(C#N)cnc23)cc1OC | inactive: 0.123% | 
55 | C=CCOc1c(OC)cc(/C=N/Nc2cccc(C(=O)O)c2)c(Br)c1Br | inactive: -5.38% | 
56 | Cc1cc(Cl)n2c(nc3cc(F)c(F)cc32)c1C#N | inactive: 0.844% | 
57 | CCCC1=Nc2cc(C(=O)NC3CCCCC3)ccc2Sc2ccc(C)cc21 | inactive: -3.15% | 
58 | COc1ccc(C(=O)N(C)Cc2cnn(Cc3ccccc3)c2)cc1S(=O)(=O)N1CCOCC1 | inactive: -0.0414% | 
59 | COc1cc2c(cc1OC)C(C)N(C(=O)c1cc(C)on1)CC2 (stereo not drawn) | inactive: -2.02% | 
60 | Nc1ncnc2c1ncn2[C@@H]1O[C@H](COP(=O)(O)O)[C@@H](O)[C@H]1O | inactive: 0.165% | 
61 | COCCCn1c(N)c(-c2nc3ccccc3n2C)c2nc3ccccc3nc21 | inactive: -15.6% | 
62 | COc1ccc(/C=N/n2c(=S)n(C)c3ccccc32)cc1OC | inactive: -0.584% | 
63 | COc1ccc(C2=Nn3c(nnc3-c3ccccn3)SC2)cc1OC | inactive: 0.19% | 
64 | C/C(=N\NC(=S)NCCc1ccccc1)c1cccc(Br)c1 | inactive: -2.39% | 
65 | COC1=CC(=O)CC(C)C12Oc1c(Cl)c(OC)cc(OC)c1C2=O (stereo not drawn) | inactive: -0.642% | 
66 | COc1cc(C)nc(NCc2ccccc2)n1 | inactive: 0.488% | 
67 | COc1cc(OC)c2c(-c3cccc(-c4ccc(OC)c(F)c4)c3)cc(=O)oc2c1 | inactive: -1.85% | 
68 | N#C/C(=C\c1ccc(Cl)cc1)c1nc2ccccc2o1 | inactive: -0.402% | 
69 | COc1ccccc1NS(=O)(=O)c1ccc(-c2cnc(C3CC3)o2)cc1 | inactive: -6.85% | 
70 | CCc1ccc(/C=N/NC(=O)c2cc(C3CC3)nc3ccccc23)s1 | inactive: -6.48% | 
71 | CCOC(=O)c1c(C)c(C(=O)OCC)n(C)c1C | inactive: -0.824% | 
72 | N#CCN1C(=S)N=C(Nc2cccc(Cl)c2)C12CCCCC2 | inactive: -1.04% | 
73 | COc1ccc(-c2cc(C(=O)NN)[nH]n2)cc1OC | inactive: -0.116% | 
74 | COc1cc2c(cc1O)CC[C@@H]1[C@@H]2CC[C@]2(C)[C@@H](O)CC[C@@H]12 | inactive: -2.78% | 
75 | COc1ccc(C(=O)N/N=C/c2ccccc2OC(=O)c2ccccc2)cc1 | inactive: -18.9% | 
76 | COc1ccc(/C=N/NC(=O)COc2ccccc2-c2ccccc2)cc1 | inactive: -4.37% | 
77 | CCCCN1C(=O)N(C)C2C1N(C)C(=O)N2CCCC (stereo not drawn) | inactive: -0.446% | 
78 | COc1ccc(-c2nn(C)c(=O)c3ccccc23)cc1CNS(C)(=O)=O | inactive: -0.456% | 

Row | SMILES | activity change, negative = inhibition | Potency
79 | CCCCC[C@H](O)/C=C/[C@@H]1[C@@H](C/C=C\CCCC(=O)O)[C@H]2CO[C@@H]1C2 | inactive: -0.516% | 
80 | COc1cc(C2C(C#N)=C(N)Oc3cc(N(C)C)ccc32)cc2c1OCO2 (stereo not drawn) | inactive: -6.66% | 
81 | CC(C)(C)C(=O)NC(=S)NNC(=O)c1ccc(-c2ccccc2)cc1 | inactive: -6.88% | 
82 | CN(C)c1ccc2c(c1)OC(N)=C(C#N)C2c1cccc(F)c1 (stereo not drawn) | inactive: -12.2% | 
83 | NNC(=O)c1[nH]c2ccc(Br)cc2c1-c1ccccc1 | inactive: -2.41% | 
84 | O=c1cc(-c2ccccc2)[nH]c2ccccc12 | inactive: -4.49% | 
85 | CCOC(=S)SCC(=O)Nc1nc(-c2ccc(Br)cc2)cs1 | inactive: -1.99% | 
86 | Cc1ccc(S(=O)(=O)Cc2ccc(C(=O)N3CCN(c4cccc(C)c4C)CC3)o2)cc1 |  | inactive
87 | CCCOc1ccccc1C1CC(=O)Nc2cc3c(cc21)OCO3 (stereo not drawn) | inactive: -22.2% | 
88 | Cc1cc2nc(/C=C/c3cccnc3)[nH]c2cc1C | inactive: -2.38% | 
89 | N#CC(C#N)=C(N)CSc1cccc[n+]1[O-] | inactive: -0.419% | 
90 | NNC(=O)c1[nH]c2ccc([N+](=O)[O-])cc2c1-c1ccccc1 | inactive: -0.543% | 
91 | COc1cc(C2Nc3ccccc3C(=O)N2c2ccc(Cl)cc2)c(Cl)cc1OCC(=O)O (stereo not drawn) | inactive: 0.262% | 
92 | Cc1ccc(C)c(NS(=O)(=O)c2ccc(-c3cnc(C4CC4)o3)cc2)c1 | inactive: -9.18% | 
93 | Oc1ccc(-c2nc3cnccn3c2Nc2ccc3c(c2)OCCO3)cc1 | inactive: -3.97% | 
94 | CCOc1ccc(N(CC(=O)Nc2ccccc2OCC)S(=O)(=O)c2c(C)noc2C)cc1 | inactive: -7.77% | 
95 | Cc1cc(=O)c(C(=O)Nc2cccc(N3CCCC3=O)c2)nn1-c1ccccc1Cl | inactive: -0.879% | 
96 | COc1cc([C@@H]2c3cc4c(cc3[C@H](O)[C@H]3COC(=O)[C@H]23)OCO4)cc(OC)c1OC | inactive: -3.51% | 
97 | CCOC(=O)C(C)N1C(=O)S/C(=C/c2ccc3c(c2)n(C)c(=O)n3C)C1=O (stereo not drawn) | inactive: -1.78% | 
98 | COc1ccc2nc(NC(=S)NC(=O)c3ccco3)sc2c1 | inactive: 0.35% | 
99 | Oc1ccc(NCc2cccc(OCc3ccccc3)c2)cc1 | inactive: -2.83% | 
100 | S=c1c2c(nc3nc[nH]n13)CCC2 | inactive: -0.796% | 
101 | COc1cc(OC)cc(C(=O)N2CC(=O)Nc3ccccc32)c1 | inactive: -0.837% | 
102 | NC(=S)n1[nH]c(-c2ccc([N+](=O)[O-])cc2)c(N=Nc2cccc(Cl)c2)c1=O | inactive: -0.38% | 
103 | CCCc1nnc(NC(=O)CCC(=O)NCCc2ccc(OC)c(OC)c2)s1 | inactive: -0.454% | 
